In the supplement of paper PMC12645437, “Orthogonal IMiD-Degron Pairs Induce Selective Protein Degradation in Cells” (ACS Chemical Biology, 2025):
The list shows a part of the results.

B1: Q9UKT9 (peptide)
chain: FWCDVCGACFTQKGNLLRHIKL
B2: Q9UKT9 (peptide)
chain: FMCSVCGHQFTQKGNLLRHIKL
B3: Q9UKT9 (peptide)
chain: FFCPQCGAQFTQKGNLLRHIKL
B4: Q9UKT9 (peptide)
chain: FRCPVCGADFTQKGNLLRHIKL
B5: Q9UKT9 (peptide)
chain: FFCDQCGAVFTQKGNLLRHIKL
B6: Q9UKT9 (peptide)
chain: LDCEICGFMCTQKGNLLRHIKL
B7: Q9UKT9 (peptide)
chain: FICNQCGHVFTQKGNLLRHIKL
B8: Q9UKT9 (peptide)
chain: FDCDQCGAYFTQKGNLLRHIKL
B9: Q9UKT9 (peptide)
chain: LTCNQCGFGCTQKGNLLRHIKL
B10: Q9UKT9 (peptide)
chain: FHCSVCGHMFTQKGNLLRHIKL
B11: Q9UKT9 (peptide)
chain: FCCDICGAWFTQKGNLLRHIKL
B12: Q9UKT9 (peptide)
chain: FDCDQCGAPFTQKGNLLRHIKL
B13: Q9UKT9 (peptide)
chain: FTCEICGRTFTQKGNLLRHIKL
B14: Q9UKT9 (peptide)
chain: LMCEICGFHCTQKGNLLRHIKL
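Further: jurkat cells carrying a lentiviral library of mutant zinc finger degrons fused to EGFP plus mCherry, mCherry+ cells FACS sorted, degron abundance counted by next-generation sequencing.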

The sequences below were run against no compound (DMSO) (assay: log2 fold change of degron read counts, EGFP-low vs EGFP+ sorted cells; higher = lower degron-EGFP level without compound (poor expression or instability)). Details: compound: DMSO control; 18 h.
For B1, the “log2 fold change of degron read counts” value was -0.683.
With B2 the “log2 fold change of degron read counts” value was -0.972.
For B3, the “log2 fold change of degron read counts” value was -0.955.
For B4, the “log2 fold change of degron read counts” value was -1.35.
For B5, the “log2 fold change of degron read counts” value was -0.393.
In the case of B6, the “log2 fold change of degron read counts” value is reported as 1.15.
With B7 the “log2 fold change of degron read counts” value was -0.583.
B8 was tested, and the “log2 fold change of degron read counts” value was -0.0859.
For B9, the “log2 fold change of degron read counts” value was 0.394.
B10 was tested, and the “log2 fold change of degron read counts” value was 0.36.
With B11 the “log2 fold change of degron read counts” value was -0.371.
With B12 the “log2 fold change of degron read counts” value was -0.96.
For B13, the “log2 fold change of degron read counts” value was -1.46.
In the case of B14, the “log2 fold change of degron read counts” value is reported as 0.347.
